Data reported in article PMC4336329 (PLoS ONE, 2015).
Hit rate of the full screen: of about 310,000 compounds, about 14,000 (4.5%) showed an effect of 50% or more. Effects have a minus sign here. The list shows a part of the results.

What follows are compounds tested against human ether-à-go-go-related gene (hERG) potassium channel (human, UniProt Q12809) (assay: primary screen, population patch clamp on CHO cells stably expressing hERG).
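Note: peak tail current of the secondary pulse compared with the same well before compound.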

Sequence of human ether-à-go-go-related gene (hERG) potassium channel (Q12809 whole entry, looked up): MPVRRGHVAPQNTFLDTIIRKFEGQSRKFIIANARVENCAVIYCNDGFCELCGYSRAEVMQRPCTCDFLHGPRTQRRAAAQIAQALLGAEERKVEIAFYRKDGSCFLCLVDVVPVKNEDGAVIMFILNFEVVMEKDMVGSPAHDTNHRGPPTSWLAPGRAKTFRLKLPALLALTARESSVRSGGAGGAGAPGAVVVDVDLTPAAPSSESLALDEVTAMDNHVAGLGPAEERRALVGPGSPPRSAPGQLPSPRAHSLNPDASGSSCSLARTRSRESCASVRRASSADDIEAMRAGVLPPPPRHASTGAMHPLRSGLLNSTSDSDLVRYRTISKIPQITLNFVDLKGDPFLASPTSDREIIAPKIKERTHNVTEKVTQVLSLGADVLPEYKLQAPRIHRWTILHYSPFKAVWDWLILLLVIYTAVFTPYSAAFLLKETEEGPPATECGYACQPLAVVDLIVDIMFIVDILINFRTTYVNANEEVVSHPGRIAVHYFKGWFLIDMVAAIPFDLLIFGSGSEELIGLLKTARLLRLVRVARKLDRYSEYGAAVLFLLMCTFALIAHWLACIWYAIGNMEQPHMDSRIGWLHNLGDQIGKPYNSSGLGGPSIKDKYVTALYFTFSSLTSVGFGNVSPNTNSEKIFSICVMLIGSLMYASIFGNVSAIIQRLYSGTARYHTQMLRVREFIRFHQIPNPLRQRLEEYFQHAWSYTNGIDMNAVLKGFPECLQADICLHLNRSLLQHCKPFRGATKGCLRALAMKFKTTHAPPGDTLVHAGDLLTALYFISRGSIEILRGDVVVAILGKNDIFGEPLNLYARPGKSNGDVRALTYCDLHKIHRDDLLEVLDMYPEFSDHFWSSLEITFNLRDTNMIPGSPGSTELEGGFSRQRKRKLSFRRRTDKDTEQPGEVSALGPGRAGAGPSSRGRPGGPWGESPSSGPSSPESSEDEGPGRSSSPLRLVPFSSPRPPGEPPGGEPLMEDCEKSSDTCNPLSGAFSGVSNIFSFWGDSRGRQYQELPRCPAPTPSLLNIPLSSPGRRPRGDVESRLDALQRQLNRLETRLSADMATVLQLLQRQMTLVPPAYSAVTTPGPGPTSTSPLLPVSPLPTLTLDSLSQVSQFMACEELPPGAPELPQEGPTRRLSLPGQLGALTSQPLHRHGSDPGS

| Structure (SMILES) | hERG current change (%, negative = inhibition) at 10uM |
| --- | --- |
| COc1cc(N2C(=O)c3ccccc3C2=O)c(Cl)cc1C(=O)OCC(=O)N(C)C | -28.5% |
| C#CCSc1nnnn1-c1ccc(Br)c(C)c1 | 0.768% |
| COc1ccc(C(=O)COC(=O)C(CCSC)NC(=O)COc2ccccc2)c(OC)c1 (stereo not drawn) | -5.38% |
| Cc1cccc(Cn2c(=O)n(CCCC(=O)NCc3ccco3)c(=O)c3ccccc32)c1 | -43.4% |
| O=c1c2ccccc2nc2n1C(CSc1ccc(F)cc1)CS2 (stereo not drawn) | -33.3% |
| CCCCOC(=O)c1ccc(Nc2ccc([N+](=O)[O-])cn2)cc1 | 14.5% |
| O=C(CCCCCBr)N1CCC(CC2CC(c3cccc(Br)c3)=NO2)(C(=O)NCC2CCCCC2)CC1 (stereo not drawn) | -69% |
| CCCCCCc1c(C)c2ccc(OCC(=O)N3CCC[C@H]3C(=O)O)c(C)c2oc1=O | 8.28% |
| COC(=O)/C=c1/s/c(=C(\C#N)C(=O)NCc2ccco2)n(-c2ccccc2)c1=O | 15.9% |
| CCc1nnc(NC(=O)CSc2nnc(C3CCCCC3)n2-c2ccccc2)s1 | -18.9% |
| O=C1C=C(c2cc(Cl)cc(Cl)c2)C[C@@H](c2ccc3c(c2)OCO3)C1 | -2.33% |
| N#Cc1cc(N)c(Nc2ccccc2)cc1C#N | 1.68% |
| CCOC(=O)c1ccc(NC(=O)N2C3CCCC2CC(NC(C)=O)C3)cc1 (stereo not drawn) | -11.6% |
| COc1ccc(OC)c(CCNC(=O)CS(=O)(=O)Cc2nc(-c3ccc(C)cc3)oc2C)c1 | -20.1% |
| COc1ccc(CCN2C(=O)c3cccc4c(C(=O)N5CCCCC5)ccc(c34)C2=O)cc1OC | 3.8% |
| CC1CCN(S(=O)(=O)N2CCC(C(=O)NCCC3=CCCCC3)CC2)CC1 | 47% |
| Cc1nc(SCC(=O)N2CCN(c3ccccc3)CC2)n[nH]1 | 19% |
| CC(C)(C)c1cc[n+](C2=C([O-])c3ccccc3C(=O)/C2=N\S(=O)(=O)c2ccccc2)cc1 | -31.9% |
| CCC(C)c1c(O)nc(SCC(=O)N2CCCCC2)[nH]c1=O (stereo not drawn) | 21.3% |
| Cc1cc2ncn(CCC(=O)NC(C)(C)C)c2cc1C | 2.63% |
| COc1ccc2oc(=O)c(C(=O)Nc3ccccc3C)cc2c1 | 9.87% |
| O=C(/C=C/Nc1cccc(C(F)(F)F)c1)C(F)(F)F | -7.61% |

| Structure (SMILES) | hERG current change (%, negative = inhibition) at 10uM |
| --- | --- |
| O=C(C1CCN(Cc2ccc(F)cc2)CC1)N(CCO)Cc1ccccc1 | -10.6% |
| Cc1cc(/C=N/NC(=O)c2ccc(O)cc2)c(C)n1C1CC1 | 20.4% |
| CN1CCN(C(=O)c2ccccc2NC(=O)Cc2ccccc2)CC1 | 5.33% |
| CCOc1ccc(N/C=C/C(=O)c2ccc(OC)cc2)c([N+](=O)[O-])c1 | 24.5% |
| O=[N+]([O-])c1ccc(N2CCN(c3ccc(Cl)nn3)CC2)c(Cl)c1 | -23.7% |
| CCCC(=O)NNC(=O)CCC(=O)Nc1ccccc1Cl | 18.4% |
| Cc1[nH]c2ccccc2c1/C=N/Nc1nc(N2CCCCC2)nc(N2CCCCC2)n1 | 7.43% |
| O=C(CSc1ncccn1)NC(=O)c1ccccc1 | 3.87% |
| O=C(COC(=O)c1ccc(S(=O)(=O)N2CCCCC2)cc1)Nc1ccccc1 | 15.8% |
| CCN(CC(=O)Nc1c(F)cccc1F)C(=O)C1(c2ccccc2)CC1 | -14.6% |
| Cc1cc(C)c(OCC(=O)NCCCn2nc(C)cc2C)c(C)c1 | -22.6% |
| Cc1ccc2nc(N3CC(=O)Nc4ccccc43)nc(-c3ccccc3)c2c1 | 11.1% |
| c1ccc(-c2ccccn2)nc1 | 1.05% |
| COc1ccc(CCNC(=O)c2cc(S(=O)(=O)N3CCC4(CC3)OCCO4)ccc2F)cc1OC | -3.9% |
| COc1ccc(C(C)=O)cc1CSc1nc2nc(C)cc(C)n2n1 | -7.3% |
| C=C1CCN([C@@H](CC(C)C)C(=O)Nc2nc3ccc(Cl)cc3s2)S(=O)(=O)c2ccccc21 | -1.16% |
| c1ccc(C2=Nn3c(nnc3-c3n[nH]c4c3CCC4)SC2)cc1 | -34.7% |
| CN(C)S(=O)(=O)c1ccc(S(=O)(=O)N2CCN(CCC#N)CC2)cc1 | -1.43% |
| Cn1c(=O)c2c(nc(N3CCN(c4ccccn4)CC3)n2Cc2ccc(Cl)cc2Cl)n(C)c1=O | 0.235% |
| O=C(NCCc1ccccn1)c1ccc(NS(=O)(=O)c2ccc(F)cc2)cc1 | 25% |
| CCN(CC(=O)Nc1c(F)cccc1F)C(=O)c1cc(-c2cccs2)nn1-c1ccccc1 | -17.4% |
| COCC(C)NC(=O)C1CC(=O)N(c2ccc(C)cc2)C1 (stereo not drawn) | 7.94% |

| Structure (SMILES) | hERG current change (%, negative = inhibition) at 10uM |
| --- | --- |
| CCOc1nc(-c2ccccc2)ccc1-c1noc(-c2cccnc2)n1 | 6.49% |
| CC(=O)N1CCN(S(=O)(=O)c2cccc(C(=O)N(Cc3ccccc3)c3ccc(C)cc3)c2)CC1 | -61.2% |
| CC(C)N1CCN(Cc2cccc(-n3cccn3)c2)CC1CCO (stereo not drawn) | -12.3% |
| COCc1ccc(CN2CCc3c([nH]c4ccccc34)C2C(C)(C)C)o1 (stereo not drawn) | 7.25% |
| CC(NC(=O)Cn1cccc1C(=O)c1ccccc1)c1ccc2c(c1)OCCO2 (stereo not drawn) | 3.8% |
| CCCCNC(=O)CN1C(=O)NC(CCc2ccccc2)C1=O (stereo not drawn) | 41.1% |
| COc1ccc2c(C)cc(SCc3c(C)noc3C)nc2c1 | -17% |
| CCN(CC)C(=O)c1cc2c(=O)oc3ccccc3c2s1 | -25% |
| O=C(CNS(=O)(=O)c1ccc2c(c1)OCCCO2)N1CCN(c2ccc(F)cc2)CC1 | -15.5% |
| CCC(NC(=O)CCc1c(C)c2cc3c4c(oc3cc2oc1=O)CCCC4)C(=O)O (stereo not drawn) | 16.2% |
| COc1ccc(C2CC(=O)Nc3n[nH]c(-c4ccccc4)c32)cc1OC (stereo not drawn) | 14.3% |
| CC1(c2ccc(Cl)cc2)NC(=O)N(CC(=O)N2CCCC2)C1=O (stereo not drawn) | 5.09% |
| COc1cccc(C(=O)Oc2ccc3ccc(O)cc3c2)c1 | 11.9% |
| CC(NC(=O)c1c(Cl)cnn1C)C1CCCO1 (stereo not drawn) | 13.9% |
| COCCn1c(SCC(=O)N2CCOCC2)nc2ccccc2c1=O | -22.3% |
| O=C(Nc1cccc(Cl)c1)N(Cc1nc2ccccc2c(=O)[nH]1)C1CCCC1 | -0.99% |
| COCCC(=O)N1CCCC(CNS(=O)(=O)c2ccc(OC)cc2)C1 (stereo not drawn) | 13.7% |
| Cc1ccc(C(=O)NCc2ccccn2)cc1Cl | 9.7% |
| CCC(=O)N/N=C/c1ccc(OS(=O)(=O)c2ccccc2)cc1 | -17.5% |
| O=C(c1ccc(F)cc1)c1ccc(-c2ccc(F)cc2)nc1 | 24.3% |
| Cc1ccc(C)c(C2C(C#N)=C(N)Oc3cc(C)oc(=O)c32)c1 (stereo not drawn) | 1.87% |
| COCCNc1nnnc2c1sc1nc(N3CCOCC3)c3c(c12)CC(C)(C)OC3 | -7.85% |

| Structure (SMILES) | hERG current change (%, negative = inhibition) at 10uM |
| --- | --- |
| Cc1cc(OCC(=O)NCC(O)c2ccccc2)c2c3c(c(=O)oc2c1)CCCC3 (stereo not drawn) | 12.1% |
| Cc1cc(S(=O)(=O)NCc2ccccc2)ccc1OCC(=O)NCc1ccccn1 | -39.1% |
| Cc1ccc(/C=N/Nc2cccc3cccnc23)c(O)c1 | 7.91% |
| COc1ccc(CNC(=O)Nc2ccc(C)cc2C)cc1 | 4.99% |
| O=C1N[C@@H](Cc2ccccc2)C(=O)N2CCC[C@@H]12 | 6.78% |
| COC(=O)C1Cc2c([nH]c3ccccc23)CN1 (stereo not drawn) | 1.45% |
| CC(C)c1nnc(N2C(=O)c3oc4ccccc4c(=O)c3C2c2ccco2)s1 (stereo not drawn) | 14.6% |
| COCC(=O)N/N=C/c1ccc(Sc2nc3ccccc3s2)o1 | -10.3% |
| Cc1ccccc1C(=O)N1CCC(C(=O)Nc2ccc(C)c(S(=O)(=O)N3CCCCC3)c2)CC1 | -10.2% |
| COc1ccc(NC(=O)C2CCN(S(=O)(=O)c3ccccc3)CC2)cc1 | 26.2% |
| CN(Cc1ccccc1)C(=O)c1ccc2c(c1)OCCO2 | 5.55% |
| CC(=O)c1cc(CN2C(=O)c3ccccc3C2=O)cs1 | -1.21% |
| Cc1cccc(C)c1NC(=O)C1(N2CCN(C(=O)c3ccco3)CC2)CCCCC1 | -15.7% |
| Cc1ccc(CN2C(=O)/C(=C\c3ccc(C(=O)NCc4cccnc4)cc3)Oc3ccccc32)cc1 | 12.9% |
| O=C(c1ccc2c(=O)n3c(nc2c1)CCC3)N1CCN(S(=O)(=O)c2cccc(F)c2)CC1 | -4.8% |
| COc1ccc(NS(=O)(=O)c2cc3c4c(c2)CCN4C(=O)CC3)cc1OC | 8.8% |
| S=C(NCc1cccnc1)Nc1ccc(Cl)c(Cl)c1 | -11.2% |
| CCCC(C(=O)NC1=NCCS1)c1ccccc1 (stereo not drawn) | 17% |
| CCOC(=O)C(C)Sc1nc(-c2ccco2)cc(C(F)(F)F)c1C#N (stereo not drawn) | -2.07% |
| Cc1cc(Cl)ccc1NC(=O)c1ccc2c(c1)CCN2S(C)(=O)=O | 9.12% |
| Cc1nnc(NC(=O)CCS(=O)(=O)c2ccccc2)s1 | 26.5% |
